# Measurements from publication PMC4336329 (PLoS ONE, 2015).
# Hit rate of the full screen: of about 310,000 compounds, about 2,200 (0.71%) showed an effect of 50% or more. The effect is printed as a negative number. The list shows a part of the results.
# Target: human ether-à-go-go-related gene (hERG) potassium channel (human, UniProt Q12809)
# Experiment: primary screen, population patch clamp on CHO cells stably expressing hERG
# human ether-à-go-go-related gene (hERG) potassium channel, sequence (Q12809 whole entry, looked up): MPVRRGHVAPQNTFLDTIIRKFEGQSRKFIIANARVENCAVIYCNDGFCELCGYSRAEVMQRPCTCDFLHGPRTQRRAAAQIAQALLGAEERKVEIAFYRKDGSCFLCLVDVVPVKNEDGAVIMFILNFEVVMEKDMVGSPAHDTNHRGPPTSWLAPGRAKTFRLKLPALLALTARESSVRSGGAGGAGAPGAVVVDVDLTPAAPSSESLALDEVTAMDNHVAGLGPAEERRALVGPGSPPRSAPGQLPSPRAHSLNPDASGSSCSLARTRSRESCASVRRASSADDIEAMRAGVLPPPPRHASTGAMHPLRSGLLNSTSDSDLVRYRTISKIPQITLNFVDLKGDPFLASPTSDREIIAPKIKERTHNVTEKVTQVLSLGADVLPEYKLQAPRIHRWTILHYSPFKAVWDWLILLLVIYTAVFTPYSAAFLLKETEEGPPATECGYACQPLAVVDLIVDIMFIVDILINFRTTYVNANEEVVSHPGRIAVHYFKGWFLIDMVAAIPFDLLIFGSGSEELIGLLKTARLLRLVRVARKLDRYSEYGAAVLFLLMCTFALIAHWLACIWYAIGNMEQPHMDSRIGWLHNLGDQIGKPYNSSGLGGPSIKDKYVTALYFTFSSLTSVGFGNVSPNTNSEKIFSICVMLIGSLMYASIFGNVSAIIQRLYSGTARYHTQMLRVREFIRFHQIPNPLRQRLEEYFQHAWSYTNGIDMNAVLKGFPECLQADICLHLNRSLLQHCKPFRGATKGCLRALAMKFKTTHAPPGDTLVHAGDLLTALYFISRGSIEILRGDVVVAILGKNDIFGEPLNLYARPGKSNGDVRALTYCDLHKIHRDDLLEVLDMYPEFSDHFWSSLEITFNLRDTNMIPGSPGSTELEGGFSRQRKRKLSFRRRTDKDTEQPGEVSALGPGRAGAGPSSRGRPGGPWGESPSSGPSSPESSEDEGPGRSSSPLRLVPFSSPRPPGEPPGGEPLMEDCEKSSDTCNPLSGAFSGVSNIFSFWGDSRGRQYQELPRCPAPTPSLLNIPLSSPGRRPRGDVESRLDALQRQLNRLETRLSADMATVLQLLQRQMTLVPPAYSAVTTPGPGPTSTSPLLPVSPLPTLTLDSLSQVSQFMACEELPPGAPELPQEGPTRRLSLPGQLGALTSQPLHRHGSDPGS
row,Compound,"hERG current change (%, negative = inhibition) at 1uM"
1,CCOC(=O)c1sc(/N=C/N(C)C)nc1C,13%
2,CCOC(=O)N1CCC(N2CCN(Cc3ccc(C)o3)C(CCO)C2)CC1 (stereo not shown),10%
3,CNC(=O)CC1C(=O)N(c2ccc(OC)cc2)C(=S)N1NC(=O)c1cccc(F)c1 (stereo not shown),12.3%
4,O=C(CCS(=O)(=O)c1ccc(Br)cc1)NCc1ccc(F)cc1,18.8%
5,CCOc1ccc(NC(=S)NCCCn2ccnc2)cc1,12.1%
6,O=C(COc1ccc(/C=N/NS(=O)(=O)c2ccccc2)cc1)Nc1ccccc1,6.11%
7,COc1ccc(NC(=O)CSc2nnc(-c3ccccn3)n2-c2ccccc2)cc1OC,8.98%
8,COc1ccc(CNC(=O)CN(C)S(=O)(=O)c2ccc3c(c2)n(C)c(=O)c(=O)n3C)cc1,12%
9,CCOC(=O)NC(Nc1sc2c(c1C(N)=O)CCCC2)(C(=O)OCC)C(F)(F)F (stereo not shown),3.99%
10,CSc1ccc(C(=O)/C=C/c2ccc(N)cc2)cc1,14%
11,CCCCOC(=O)NC(NCC(O)c1ccccc1)(C(F)(F)F)C(F)(F)F (stereo not shown),7.67%
12,CCCCC(=O)OCC(=O)N1N=C(c2c[nH]c3ccccc23)C(O)C1c1ccc(OC)cc1 (stereo not shown),9.42%
13,CCNS(=O)(=O)c1ccc(C(=O)OCC(=O)N2CCCc3ccccc32)cc1,-12.4%
14,CC1(c2ccc(OC(F)F)cc2)NC(=O)N(CC(=O)NCCC2=CCCCC2)C1=O (stereo not shown),1.63%
15,Cc1cc(Cl)c(OCCCN(C)C)c(Br)c1.O=C(O)C(=O)O,-0.159%
16,Fc1ccc(-c2nc(-c3cccs3)[nH]c2-c2ccc(F)cc2)cc1,1.79%
17,N#CCCN(Cc1cccnc1)C(=O)Nc1ccccc1,0.734%
18,CC1(C)CC(=O)C2=C(C1)N=C1SCCC(=O)N1C2c1cccc([N+](=O)[O-])c1 (stereo not shown),-6.8%
19,COc1cc(OC)cc(C(=O)NC(=S)NNC(=O)Cc2cccs2)c1,14.5%
20,CCOc1ncccc1C(=O)NCCc1ccc(S(N)(=O)=O)cc1,9.47%
21,CC(C)C1N(C(=O)CN2CCCCC2)CCN1S(=O)(=O)c1ccccc1 (stereo not shown),11.8%
22,COC(=O)C1=C(C)N(CCCC(=O)O)C(=O)NC1c1ccc(C(F)(F)F)cc1 (stereo not shown),2.9%
23,CCOC(=O)N/N=C/c1c(C)nn(-c2cccc(C(F)(F)F)c2)c1Cl,1.3%
24,COC(CNC(=O)CC1C(=O)N(Cc2ccccc2)C(C)c2nc3ccccc3n21)OC (stereo not shown),5.23%
25,CCN1CCN(C(=O)Cn2cnc3sc(C)c(S(=O)(=O)N4CCN(c5ncccn5)CC4)c3c2=O)CC1,12.4%
26,Cc1ccc(C)c(OCc2cc(C(=O)N3CCN(c4ccccc4C)CC3C)no2)c1 (stereo not shown),6.82%
27,Cc1cccc(NS(=O)(=O)c2cccc(C(=O)NCc3ccccc3CN3CCOCC3)c2)c1,-4.3%
28,Cc1ccsc1/C=C1\Oc2cc(OCC(=O)c3ccccc3)ccc2C1=O,9.53%

row,Compound,"hERG current change (%, negative = inhibition) at 1uM"
1,C=CCn1c(SCC(=O)N2CCc3ccccc3C2)nc2sc(C)c(C)c2c1=O,7.56%
2,Cc1nn(C(C)C(=O)Nc2ccccc2Cl)c(=O)c2nn(-c3ccccc3)c(C)c12 (stereo not shown),3.8%
3,CCC(C)c1ccc(OCCN2CCCC2)cc1 (stereo not shown),-0.789%
4,O=C(NCCc1c[nH]c2ccccc12)C(=O)NCC(c1ccco1)N1CCN(c2ccc(F)cc2)CC1 (stereo not shown),10.1%
5,CCCN1C(=O)c2cc(C(=O)Nc3ccccc3CC)ccc2C1O (stereo not shown),8.47%
6,COc1cccc(CNC(=O)C2CCCN(c3nc4ccccc4o3)C2)c1 (stereo not shown),-7.68%
7,O=C(N/N=C/c1ccccc1F)c1cccc(NC(=O)c2ccccc2Cl)c1,12.5%
8,C=CCN1C(=O)NC(=O)/C(=C/c2cc3c4c(c2)CCCN4CCC3)C1=O,-8.47%
9,N#Cc1ccccc1OCC(=O)Nc1ccc2c(c1)OCCCO2,6.91%
10,COc1ccc(N(C)S(=O)(=O)c2cccc3nsnc23)cc1,15.6%
11,O=C(CSc1nnc(CNC(=O)c2ccco2)o1)Nc1ccc(Br)cc1,1.05%
12,COc1ccccc1-c1noc(CCC(=O)NC2CCCC2)n1,15.2%
13,COc1ccc(/C(N)=N/OC(=O)c2ccc(C)c([N+](=O)[O-])c2)cc1OC,15.6%
14,Cc1ccc(NC(=O)CSc2n[nH]c(-c3cccnc3)n2)cc1Cl,3.82%
15,COc1cc([N+](=O)[O-])cc(/C=N/NC(=O)C(C)Nc2ccccc2C)c1O (stereo not shown),19.3%
16,O=C(Nc1ccc2c(c1)CCC2)c1ccccc1Br,2.99%
17,O=[N+]([O-])c1ccc2c(c1)C(O)n1nc(-c3ccccc3)nc1S2 (stereo not shown),14.3%
18,Cc1cc(=O)oc2cc(NC(=S)NCc3ccccn3)ccc12,5.98%
19,Cc1ccc2nc(SCC(=O)N/N=C/c3ccco3)cc(C)c2c1,9.47%
20,O=P(O)(CCc1ccccn1)CN1CCOCC1,7.57%
21,Cc1ccc(Cn2nnnc2CN2CCC(O)(c3ccc(F)cc3)CC2)cc1,10.2%
22,COc1cc(C(=O)Nc2scc(-c3ccc(C)cc3)c2C(=O)O)cc(OC)c1OC,19.6%
23,COc1ccc(Nc2c(-c3ccc(C)cc3)nc3cnccn23)cc1,-3.17%
24,COc1ccccc1NC(=O)CSc1nccn1Cc1ccccc1,5.23%
25,CCN1CCN(c2ccc(N3CCN(C(=O)c4ccc(Br)o4)CC3)nn2)CC1,-38.3%
26,O=C(CC1C(=O)NCCN1C(=O)c1ccc(Cl)cc1)Nc1ccc(F)cc1 (stereo not shown),-1.98%
27,N#CCCn1cc(C(=O)Nc2ccc([N+](=O)[O-])cc2)c(-c2cccs2)n1,-15.8%
